# In PubChem BioAssay AID1460 (National Center for Advancing Translational Sciences (NCATS), 2008):
# Values joined by “and” are separate entries in the source; they are usually repeats but may differ in a detail not shown here. Identical values can stand only once. The whole screen tested about 270,000 compounds, of which about 5,800 (2.1%) were called active. Inconclusive results, whose numbers are uncertain, are shown with a selection of clear calls. Calls come from the whole dose curve; as a rule, active = well fitted inhibition curve with a large enough effect; inconclusive = small, poorly fitted or top-dose-only effect; inactive = flat fitted curve, though single readings scatter. Potencies beside an inconclusive call are fits to weak or partial responses and may not hold up.
# Biological target: Microtubule-associated protein tau (Homo sapiens) (UniProt P10636)
# Assay: qHTS for Inhibitors of Tau Fibril Formation, Thioflavin T Binding; note: nearly all actives have a fitted effect of over 55% in size
# Conditions: recombinant tau K18 P301L (four-repeat tau fragment), heparin-induced fibrillization, ThT fluorescence; series mostly up to 57.4 µM
# In short: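 Recombinant human tau K18 fragment […] carrying P301L, 15 uM unlabeled plus 0.24 uM Alexa 594-labeled, was fibrillized with 20 uM heparin in 100 mM sodium acetate pH 7 for 6 hr at 37 C; 30 uM ThT fluorescence read after 1 hr.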
# Potency is the fitted concentration of half-maximal effect; tags give direction and shape of the fitted curve.
# Sequence of UniProt P10636 (P10636 whole entry, looked up): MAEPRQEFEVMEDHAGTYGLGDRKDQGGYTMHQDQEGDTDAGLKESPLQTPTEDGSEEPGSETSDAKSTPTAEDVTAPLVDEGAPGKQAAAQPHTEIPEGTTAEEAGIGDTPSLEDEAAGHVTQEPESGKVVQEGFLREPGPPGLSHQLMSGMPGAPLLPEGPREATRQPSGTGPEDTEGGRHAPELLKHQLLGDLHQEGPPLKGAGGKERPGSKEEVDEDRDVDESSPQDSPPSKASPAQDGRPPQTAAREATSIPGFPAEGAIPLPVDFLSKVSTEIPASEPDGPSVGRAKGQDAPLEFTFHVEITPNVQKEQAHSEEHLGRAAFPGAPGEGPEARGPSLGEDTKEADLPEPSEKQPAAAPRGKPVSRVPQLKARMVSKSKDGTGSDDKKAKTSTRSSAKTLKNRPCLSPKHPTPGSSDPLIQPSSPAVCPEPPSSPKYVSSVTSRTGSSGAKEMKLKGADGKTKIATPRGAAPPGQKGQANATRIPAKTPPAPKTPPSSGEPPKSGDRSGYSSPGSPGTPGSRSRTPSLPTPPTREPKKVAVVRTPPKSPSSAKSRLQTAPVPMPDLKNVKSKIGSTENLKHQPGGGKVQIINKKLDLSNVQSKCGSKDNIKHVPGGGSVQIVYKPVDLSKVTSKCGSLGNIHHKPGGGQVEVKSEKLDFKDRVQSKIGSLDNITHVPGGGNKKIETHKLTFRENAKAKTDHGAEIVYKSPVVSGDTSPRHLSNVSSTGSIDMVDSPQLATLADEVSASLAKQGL
row,Compound,Potency
1,Cc1ccc(-n2cc(C(=O)c3cc(Cl)ccc3O)cc(C#N)c2=O)cc1,"inconclusive: 39.8 µM [inhibitor, single point]"
2,CCCOc1ccc(C(=O)Nc2ccc(NC(=O)c3ccccc3)c(C)c2)cc1,"inconclusive: 0.631 µM [inhibitor, full curve, poor fit]"
3,COc1ccc(CCN2C(=O)/C(=C\c3ccco3)SC2=S)cc1OC,"inconclusive: 3.16 µM [inhibitor, partial curve]"
4,CCOC(=O)c1ccc(NC(=S)N(CCN2CCCCCC2)Cc2ccco2)cc1,inactive
5,CCC(C)NC(=O)C1c2cc(OC)c(OC)cc2C(=O)N(C)C1c1ccc(OC)cc1 (stereo not given),inactive
6,CCN=C1S/C(=C\c2ccc(N3CCOCC3)cc2C)C(=O)N1CC,inactive
7,CCc1nc(C)cn1S(=O)(=O)c1ccc(Cl)c(Cl)c1OC,inactive
8,N#Cc1ccccc1Cn1cnc2nc3c(cc2c1=O)CCCC3,inactive
9,O=C(NCCc1c[nH]c2ccccc12)C(=O)NCC1OCCCN1S(=O)(=O)c1cccs1 (stereo not given),inactive
10,CSc1nc(N)nc(SCCS(=O)(=O)c2ccc(Cl)cc2)c1C#N,"inconclusive: 39.8 µM [activator, partial curve]"
11,COCCn1c(C)cc(O)c(C(c2ccc(F)cc2)N2CCN(c3ccccc3)CC2)c1=O (stereo not given),"inconclusive: 17.8 µM [inhibitor, single point]"
12,COc1ccccc1OCCN1CSC(=S)N(C)C1,inactive
13,CCNC(=O)c1c(NC(=O)c2nc(S(=O)(=O)CC)ncc2Cl)sc2c1CCCC2,active: 6.31 µM
14,COc1ccccc1NC(=O)c1sc2nc3c(cc2c1N)CN(Cc1ccccc1)CC3,"inconclusive: 5.62 µM [inhibitor, partial curve, poor fit]"
15,Cc1cc(C)nc(NC(=O)c2ccc(C)c([N+](=O)[O-])c2)n1,inactive
16,Cc1nc(NCCc2ccc(F)cc2)c(C#N)c(C)c1[N+](=O)[O-],inactive
17,CC(C)c1ccc(NC(=O)Cn2nnc(C(=O)NCc3ccc(Cl)cc3)c2N)cc1,inactive
18,COc1ccc(CCNC(=O)c2cn(C)c3ccc(S(=O)(=O)N(C)C)cc3c2=O)cc1OC,inactive
19,CN(C)/C=C1\C(=O)ON=C1c1ccccc1,inactive
20,CC1CCCN(S(=O)(=O)c2cc3c4c(c2)CC(=O)N4CCC3)C1 (stereo not given),inactive
21,CC(C)c1ccc(NC(=O)N2CCC(c3nc4ccccc4o3)CC2)cc1,"inconclusive: 3.16 µM [inhibitor, full curve]"
22,O=C1/C(=C/c2ccccc2)CCCc2ccccc21,"inconclusive: 39.8 µM [inhibitor, partial curve, poor fit]"
23,C/C(=N\NC(=O)c1ccc(C)cc1)C1C(=O)c2ccccc2C1=O,active: 5.01 µM
24,COc1ccc(S(=O)(=O)N(C(C)=O)c2ccc3oc(=O)sc3c2)cc1,"inconclusive: 28.2 µM [inhibitor, partial curve]"

row,Compound,Potency
1,COc1cc(/C=N/NC(=O)CNc2n[nH]c(=O)[nH]c2=O)ccc1OCc1ccccc1,"inconclusive: 14.1 µM [inhibitor, partial curve]"
2,CSc1ccc(CCNC(=O)c2cc3cc(S(=O)(=O)N4CCCCC4)ccc3n2C)cc1,inactive
3,Fc1ccc2nc(Nc3nc4cc5c(cc4s3)OCCO5)sc2c1,active: 10 µM
4,CCOc1cc(C2NC(=O)NC(O)(C(F)(F)F)C2C(=O)c2ccc(Cl)cc2)ccc1O (stereo not given),inactive
5,O=C(COc1ccc2ccccc2c1)NCCn1ccc2ccccc21,"inconclusive: 11.2 µM [inhibitor, partial curve]"
6,O=C(c1ccccc1Cl)N(C(=O)c1ccccc1Cl)c1nccc(-c2cccs2)n1,inactive
7,CC(=O)c1ccc(NC(=O)c2ccc3c(Cl)c4c(nc3c2)CCCC4)cc1,"inconclusive: 1.58 µM [inhibitor, full curve]"
8,O=C(Nc1cccc2oc(=O)ccc12)c1ccc([N+](=O)[O-])cc1[N+](=O)[O-],"inconclusive: 20 µM [inhibitor, single point]"
9,Cc1cccc(C(=O)N2CCc3cc(CNS(=O)(=O)c4ccc(F)c(Cl)c4)ccc32)c1,inactive
10,CC(=O)c1ccc(-n2c(-c3cc(-c4ccco4)[nH]n3)n[nH]c2=S)cc1,"inconclusive: 35.5 µM [inhibitor, partial curve]"
11,COc1cc(C2NC(=O)C(C#N)=C(Nc3cccc(C)c3)S2)ccc1O (stereo not given),"inconclusive: 31.6 µM [inhibitor, partial curve] and inconclusive: 31.6 µM [inhibitor, single point]"
12,CCCCN=C1C([N+](=O)[O-])=CC=C2C1=NC1(CCCCC1)N2O,active: 8.91 µM
13,CCN(CC)S(=O)(=O)c1ccc2c(c1)nc(SCC(=O)N1CCOCC1)n2-c1ccccc1OC,inactive
14,CCc1ccccc1NC(=O)Cn1ccn(Cc2ccccc2)c(=O)c1=O,inactive
15,CCOC(=O)CSc1cc(-c2ccccc2)nc2ncnn12,inactive
16,O=C(Nc1ccc2snnc2c1)N1CCN(c2ccccc2)CC1,"inconclusive: 3.16 µM [inhibitor, partial curve]"
17,COc1ccc(/C(O)=C/Sc2nnc(Cc3ccccc3)o2)cc1,"inconclusive: 28.2 µM [inhibitor, partial curve]"
18,COc1cccc(-n2c(SCC(=O)Nc3nc4ccccc4s3)nc3ccccc3c2=O)c1,"inconclusive: 39.8 µM [activator, single point]"
19,COc1ccc(NC(=O)c2ccco2)cc1NC(=O)c1c(OC)cccc1OC,"inconclusive: 39.8 µM [inhibitor, single point]"
20,CCN(CC)c1ccc(/C=N/NC(=S)NCc2ccco2)cc1,"inconclusive: 7.94 µM [inhibitor, partial curve]"
21,COc1cccc(/C=N/Nc2nc(-c3cccnc3)nc3ccccc23)c1,"inconclusive: 2.51 µM [inhibitor, full curve, poor fit]"
22,COc1cccc(/C=N/NC(=O)c2ccc3nc[nH]c3c2)c1,"inconclusive: 39.8 µM [inhibitor, single point]"
23,CNc1ccc(Br)cc(C(=O)/C=C/c2cccc(OC)c2OC)c1=O,active: 14.1 µM
24,Cc1cc(N)n2ncc(-c3ccccc3)c2n1,"inconclusive: 20 µM [inhibitor, partial curve]"

row,Compound,Potency
1,O=C(c1ccc(Cl)c(Cl)c1)N1CCC(=O)N(C(COCc2ccc(Cl)cc2)Cc2ccccc2)CC1 (stereo not given),"inconclusive: 14.1 µM [inhibitor, partial curve, poor fit]"
2,CC(=O)c1ccc(N2CCN(C(=O)Nc3ccc(C(C)C)cc3)CC2)cc1,"inconclusive: 631 nM [inhibitor, full curve] and inconclusive: 1.78 µM [inhibitor, full curve]"
3,Cc1ccc(-c2csc(NC(=S)NC(=O)/C=C/c3ccco3)n2)cc1,"inconclusive: 10 µM [inhibitor, partial curve, poor fit]"
4,CCN(CC)N=Nc1[nH]nc2nc(C)cc(C)c12,"inconclusive: 14.1 µM [inhibitor, partial curve]"
5,COc1ccc(CCNC(=O)c2ccc3c(c2)ncn3-c2ccc(C(C)C)cc2)cc1OC,"inconclusive: 12.6 µM [inhibitor, partial curve]"
6,COc1ccc(Oc2ncc(CN3CCN(c4ccccc4)CC3)s2)cc1,"inconclusive: 12.6 µM [inhibitor, partial curve]"
7,CN(C)CCCN1C(=O)C(=O)/C(=C(/O)c2ccncc2)C1c1cccnc1 (stereo not given),inactive
8,COc1ccc2c(c1O)-c1ccccc1CCN(C)C2,"inconclusive: 0.355 µM [activator, single point]"
9,CCOC(=O)c1ccccc1NC(=O)CN(c1ccccc1OC)S(C)(=O)=O,inactive
10,COc1ccc(NS(=O)(=O)c2ccc3[nH]c4c(c3c2)CCCCC4)cc1,"inconclusive: 3.55 µM [inhibitor, single point]"
11,COc1ccc(-n2cc(C(=O)Oc3cc(C)cc(C)c3)c3ccccc3c2=O)cc1,inactive
12,CCN(CC)Cc1c(NC(=O)c2ccccc2)sc(C)c1C,"inconclusive: 11.2 µM [inhibitor, partial curve, poor fit]"
13,Cc1ccc(NC(=O)CN(C)C(=O)Cn2ncc(Cl)c(Cl)c2=O)cc1,inactive
14,c1cn2c(NC3CCCC3)c(-c3ccc(N4CCOCC4)cc3)nc2cn1,"inconclusive: 15.8 µM [inhibitor, partial curve]"
15,COc1cc(/C=N\NC(=O)c2cccc(Cl)c2)ccc1Oc1ccc([N+](=O)[O-])cn1,"inconclusive: 12.6 µM [inhibitor, partial curve, poor fit]"
16,Cc1nc(N)sc1C(=O)N/N=C/c1c[nH]c2ccccc12,"inconclusive: 7.94 µM [inhibitor, partial curve]"
17,O=C(OCc1nnc(-c2ccccc2)o1)C1CCN(S(=O)(=O)c2cccs2)CC1,"inconclusive: 35.5 µM [inhibitor, single point]"
18,COC(=O)c1ccc(Nc2c([N+](=O)[O-])c(=O)oc3ccccc23)cc1,"inconclusive: 8.91 µM [inhibitor, partial curve]"
19,O=C(CCCc1c[nH]c2ccccc12)Nc1ccc2ccccc2c1,"inconclusive: 0.891 µM [inhibitor, partial curve]"
20,O=C(NC(=S)N1CCCc2ccccc21)c1ccc([N+](=O)[O-])cc1,"inconclusive: 17.8 µM [inhibitor, partial curve]"
21,CCN1/C(=C/C=C/c2oc3ccc4ccccc4c3[n+]2CC)Oc2ccc3ccccc3c21,active: 1.12 µM
22,COc1ccc(/C=C/C(=O)Nc2ccc(OC)cc2[N+](=O)[O-])cc1,"inconclusive: 1.12 µM [inhibitor, full curve]"
